From the supplement of paper PMC4166925
± gives the standard deviation of the averaged measurements. In all, about 33,000 sequences were measured (“E-score (dimensionless, -0.5 to 0.5)”: median about -0.049, highest 2% from about 0.37 on). The list shows a part of the results.

system: T1, PmTbr T-box DNA-binding domain (GST fusion); assay: PBM E-score of 8-mer (E-score (dimensionless, -0.5 to 0.5)); Tbr is Tbrain of the sea star Patiria miniata (Pm) or the sea urchin Strongylocentrotus purpuratus (Sp); higher = stronger binding preference; most listed sequences are background and not binding sites; conditions: the construct has about 5 more residues each side
T1 sequence: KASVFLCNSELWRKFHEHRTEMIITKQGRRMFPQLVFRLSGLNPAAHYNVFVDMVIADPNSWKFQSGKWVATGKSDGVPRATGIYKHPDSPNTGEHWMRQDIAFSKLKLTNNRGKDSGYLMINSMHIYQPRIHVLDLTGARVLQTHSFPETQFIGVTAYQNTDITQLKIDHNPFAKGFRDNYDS
Procedure: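 Universal protein-binding microarray (Agilent AMADID 016060, 60-bp probes with a 35-bp variable region) incubated with 200 nM GST-fused Patiria miniata Tbr T-box DNA-binding domain (residues 272-466) in PBS pH 7.5. Scored for every ungapped 8-mer (given with its reverse complement) by the Universal PBM Analysis Suite as E-score (modified Wilcoxon-Mann-Whitney enrichment, range -0.5 to 0.5; >0.45 counts as bound) and Z-score of median probe intensity. Two replicate arrays (datasets 1 and 2).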
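Further: 200 nM protein in PBS on universal arrays averaged over duplicate arrays.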

Row | Sequence | PBM E-score of 8-mer
1 | CAATCTCC | -0.056 ± 0.038
2 | AACCCGAC | 0.162 ± 0.0046
3 | GGCGCAAA | 0.255 ± 0.017
4 | AGCCCAAA | -0.246 ± 0.1
5 | CCCGCCAA | 0.161 ± 0.0064
6 | GCCAGAGC | -0.249 ± 0.03
7 | CGGGCGGC | -0.0379 ± 0.033
8 | ACAGCAGT | -0.0497 ± 0.058
9 | CGTGGGTC | 0.056 ± 0.08
10 | AGAGGGAC | -0.0717 ± 0.0033
11 | CGAAGCGA | 0.0214 ± 0.12
12 | AAACTCAA | -0.0977 ± 0.039
13 | ATGTTTCC | -0.148 ± 0.077
14 | CAGTCAGC | -0.0819 ± 0.0062
15 | CTTCAAAA | -0.0156 ± 0.0011
16 | AAAATGGA | -0.0268 ± 0.11
17 | ACTCAATA | 0.0101 ± 0.025
18 | GAATCGAA | 0.0477 ± 0.036
19 | CATGTACG | -0.00938 ± 0.079
20 | GCAATAAC | -0.0092 ± 0.029
21 | GACCGACA | 0.13 ± 0.056
22 | GCTTTATA | 0.0425 ± 0.073
23 | AATAGGAC | -0.359 ± 0.027
24 | AATCGTAC | -0.11 ± 0.0033
25 | ATAGTATA | 0.0331 ± 0.027

Row | Sequence | PBM E-score of 8-mer
26 | CAGCGTTC | 0.137 ± 0.014
27 | AATGTATA | -0.208 ± 0.016
28 | GCATGGAA | -0.235 ± 0.023
29 | ACTGGACA | -0.0215 ± 0.0079
30 | ACTACTCT | -0.247 ± 0.0034
31 | GACCGAGC | -0.202 ± 0.0072
32 | ACGTGACA | 0.385 ± 0.023
33 | AGAAACCT | -0.13 ± 0.074
34 | ACACCGAA | 0.182 ± 0.02
35 | AGCGTCTA | 0.00302 ± 0.018
36 | GTCCGTCA | 0.107 ± 0.035
37 | TACAACTA | -0.185 ± 0.0033
38 | AGCAGCAC | 0.116 ± 0.039
39 | ATGAAACA | -0.0732 ± 0.037
40 | CTGTCGTC | 0.0769 ± 0.0034
41 | AGGGGTCG | -0.0869 ± 0.049
42 | CTGCTGAA | -0.067 ± 0.047
43 | GACCAGCC | -0.166 ± 0.018
44 | AACACTAT | 0.311 ± 0.006
45 | AGTGTCAC | 0.449 ± 0.0029
46 | CCGTGCAA | -0.0287 ± 0.039
47 | AGAGTAAG | 0.0807 ± 0.056
48 | GGATGACC | 0.0868 ± 0.033
49 | TGAGACAA | 0.156 ± 0.019
50 | AAGGCACT | -0.152 ± 0.041

Row | Sequence | PBM E-score of 8-mer
51 | ATGCGGTG | -0.168 ± 0.046
52 | GAACCATA | -0.122 ± 0.05
53 | CCTTGAAA | -0.0493 ± 0.0057
54 | ATAAGCAA | -0.134 ± 0.049
55 | TGAGTACA | 0.0931 ± 0.048
56 | CCCTATGA | -0.0526 ± 0.069
57 | CCATTGCG | -0.199 ± 0.051
58 | TCATTGGA | -0.0232 ± 0.16
59 | CTCATTAA | -0.0984 ± 0.091
60 | TGATGAAA | 0.189 ± 0.019
61 | GCAGGAAA | 0.00734 ± 0.033
62 | CGAAGAAC | -0.251 ± 0.036
63 | AATTAGTA | -0.0115 ± 0.032
64 | AGTCTCTA | -0.132 ± 0.041
65 | CCGGTAGC | 0.0411 ± 0.022
66 | CTCAGTTA | -0.0825 ± 0.037
67 | CTCTCTCC | -0.0299 ± 0.026
68 | GTGCGAGA | 0.43391 ± 0.00018
69 | CGGTCGAG | -0.16 ± 0.075
70 | CTCCCTGC | -0.156 ± 0.12
71 | ATTGCACG | 0.152 ± 0.033
72 | GAGGACGA | -0.184 ± 0.027
73 | CGGTATCA | 0.15 ± 0.072
74 | CCAACGGG | -0.0192 ± 0.018
75 | AGAACATG | -0.102 ± 0.0022

Row | Sequence | PBM E-score of 8-mer
76 | GACGTCCC | -0.307 ± 0.057
77 | AGGTCGGA | -0.213 ± 0.0032
78 | CATGTATC | 0.00834 ± 0.075
79 | TGCTTAAA | -0.266 ± 0.041
80 | GCCCTTCA | -0.138 ± 0.043
81 | TAAACCAA | -0.0372 ± 0.02
82 | ATTTACTC | -0.13 ± 0.03
83 | AGCGTAAT | -0.168 ± 0.0079
84 | CGGCTGCC | -0.0529 ± 0.09
85 | TCCAGTCA | -0.0299 ± 0.039
86 | GATTTAGC | 0.188 ± 0.043
87 | AGGATGTG | 0.164 ± 0.0024
88 | ACGGGCCG | -0.156 ± 0.091
89 | ATAGACAT | -0.284 ± 0.024
90 | CTTCGGCC | -0.134 ± 0.017
91 | GCATGACA | 0.146 ± 0.0081
92 | GGAGACCC | -0.298 ± 0.01
93 | GATTGCCA | 0.142 ± 0.011
94 | CTGCGTTA | -0.0447 ± 0.012
95 | AACCAAAT | -0.134 ± 0.016
96 | ATCCACAG | -0.0977 ± 0.018
97 | ATTATGAG | -0.0373 ± 0.02
98 | AGTCTTCA | 0.035 ± 0.045
99 | AGTAGGGG | -0.12 ± 0.0044
100 | AACGAGGC | -0.0368 ± 0.017

Row | Sequence | PBM E-score of 8-mer
101 | AAAGTTGT | 0.166 ± 0.096
102 | GAGCAACC | -0.171 ± 0.01
103 | GGCTGTGA | 0.235 ± 0.016
104 | CGAACGGC | 0.0442 ± 0.1
105 | ATTAGACG | -0.105 ± 0.028
106 | ATTGAATA | -0.139 ± 0.075
107 | CACTAGGG | -0.15 ± 0.031
108 | GGACACAC | 0.101 ± 0.0014
109 | AGTACAAC | 0.0251 ± 0.019
110 | ACTCAGGG | 0.0432 ± 0.005
111 | CGAGCGCG | 0.181 ± 0.04
112 | CCTAGTTC | -0.072 ± 0.0041
113 | CAATGCGG | -0.152 ± 0.0081
114 | AAGTATAG | -0.00462 ± 0.026
115 | AGCTACCT | -0.25 ± 0.061
116 | TCTGGGAA | -0.158 ± 0.069
117 | ACTCGTCG | -0.0593 ± 0.073
118 | TATTTTCA | 0.0531 ± 0.06
119 | ATTGCGAG | 0.216 ± 0.031
120 | AATCGACA | 0.209 ± 0.027
121 | CACACCAA | 0.3718 ± 0.0018
122 | GCCACCAA | 0.207 ± 0.077
123 | ATGTCATA | -0.187 ± 0.0068
124 | CTGCTCCA | -0.253 ± 0.015
125 | AGCTTTTG | -0.164 ± 0.032

Row | Sequence | PBM E-score of 8-mer
126 | TCGTCGAA | 0.141 ± 0.047
127 | GTTCTAGA | -0.2295 ± 0.0017
128 | GAGTCTTA | 0.00905 ± 0.018
129 | GGTCTCCA | -0.151 ± 0.089
130 | AATTACGA | -0.0334 ± 0.0093
131 | CCTTGACG | 0.0453 ± 0.057
132 | AGCCGCGC | 0.00138 ± 0.12
133 | AGAGCGTG | 0.0942 ± 0.066
134 | CCATGACC | -0.318 ± 0.061
135 | CTTATCTA | -0.106 ± 0.036
136 | ATGCGAAA | 0.145 ± 0.041
137 | CACAAGGG | 0.0585 ± 0.042
138 | AGGTGGCC | 0.0319 ± 0.077
139 | ATAAGTAG | 0.149 ± 0.0065
140 | AGTGGGAC | -0.0181 ± 0.026
141 | ACACAGGT | 0.0898 ± 0.0077
142 | AATGAAGA | -0.105 ± 0.049
143 | CCTTCCAG | -0.17 ± 0.067
144 | GGCCCGCA | -0.119 ± 0.05
145 | AGATGCCA | -0.00611 ± 0.051
146 | AGAGGTAA | -0.114 ± 0.044
147 | GATCCGAA | -0.203 ± 0.0092
148 | TATGATCA | -0.0874 ± 0.091
149 | ATGGAACA | -0.123 ± 0.0083
150 | AGGGAAAC | -0.179 ± 0.016

Row | Sequence | PBM E-score of 8-mer
151 | CGTTAAAC | 0.178 ± 0.033
152 | CACTAAAA | 0.0757 ± 0.1
153 | CCCTTAGC | 0.0471 ± 0.014
154 | AGGATCTA | -0.242 ± 0.082
155 | GGAAAAGA | -0.115 ± 0.022
156 | ATTACGGA | -0.278 ± 0.027
157 | GGCCGCAC | 0.0673 ± 0.068
158 | AATCCCGT | -0.198 ± 0.019
159 | GATGTAAA | -0.196 ± 0.047
160 | TCGTAACA | 0.214 ± 0.0074
161 | GCCGCGCA | 0.0422 ± 0.067
162 | ACTCAGGA | -0.0903 ± 0.091
163 | AAAACGTG | 0.247 ± 0.069
164 | AAGATCGG | -0.0806 ± 0.13
165 | GCGGTAAC | -0.0299 ± 0.029
166 | CTCCTTGC | -0.127 ± 0.067
167 | GGCCGAAA | -0.125 ± 0.052
168 | AACGAAGA | -0.0342 ± 0.055
169 | AAACGGTC | -0.215 ± 0.024
170 | CCTATGGC | 0.137 ± 0.0037
171 | AGAATGGG | -0.105 ± 0.073
172 | GGCAGTGA | -0.0177 ± 0.003
